Test results as given in PMC4336329 (PLoS ONE, 2015).
About 14,000 (4.5%) of roughly 310,000 compounds showed an effect of 50% or more. Effects have a minus sign here. The list shows a part of the results.

Biological target: human ether-à-go-go-related gene (hERG) potassium channel (human, UniProt Q12809)
Assay: primary screen, population patch clamp on CHO cells stably expressing hERG
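Further: peak tail current of the secondary pulse compared with the same well before compound.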

human ether-à-go-go-related gene (hERG) potassium channel, sequence (Q12809 whole entry, looked up): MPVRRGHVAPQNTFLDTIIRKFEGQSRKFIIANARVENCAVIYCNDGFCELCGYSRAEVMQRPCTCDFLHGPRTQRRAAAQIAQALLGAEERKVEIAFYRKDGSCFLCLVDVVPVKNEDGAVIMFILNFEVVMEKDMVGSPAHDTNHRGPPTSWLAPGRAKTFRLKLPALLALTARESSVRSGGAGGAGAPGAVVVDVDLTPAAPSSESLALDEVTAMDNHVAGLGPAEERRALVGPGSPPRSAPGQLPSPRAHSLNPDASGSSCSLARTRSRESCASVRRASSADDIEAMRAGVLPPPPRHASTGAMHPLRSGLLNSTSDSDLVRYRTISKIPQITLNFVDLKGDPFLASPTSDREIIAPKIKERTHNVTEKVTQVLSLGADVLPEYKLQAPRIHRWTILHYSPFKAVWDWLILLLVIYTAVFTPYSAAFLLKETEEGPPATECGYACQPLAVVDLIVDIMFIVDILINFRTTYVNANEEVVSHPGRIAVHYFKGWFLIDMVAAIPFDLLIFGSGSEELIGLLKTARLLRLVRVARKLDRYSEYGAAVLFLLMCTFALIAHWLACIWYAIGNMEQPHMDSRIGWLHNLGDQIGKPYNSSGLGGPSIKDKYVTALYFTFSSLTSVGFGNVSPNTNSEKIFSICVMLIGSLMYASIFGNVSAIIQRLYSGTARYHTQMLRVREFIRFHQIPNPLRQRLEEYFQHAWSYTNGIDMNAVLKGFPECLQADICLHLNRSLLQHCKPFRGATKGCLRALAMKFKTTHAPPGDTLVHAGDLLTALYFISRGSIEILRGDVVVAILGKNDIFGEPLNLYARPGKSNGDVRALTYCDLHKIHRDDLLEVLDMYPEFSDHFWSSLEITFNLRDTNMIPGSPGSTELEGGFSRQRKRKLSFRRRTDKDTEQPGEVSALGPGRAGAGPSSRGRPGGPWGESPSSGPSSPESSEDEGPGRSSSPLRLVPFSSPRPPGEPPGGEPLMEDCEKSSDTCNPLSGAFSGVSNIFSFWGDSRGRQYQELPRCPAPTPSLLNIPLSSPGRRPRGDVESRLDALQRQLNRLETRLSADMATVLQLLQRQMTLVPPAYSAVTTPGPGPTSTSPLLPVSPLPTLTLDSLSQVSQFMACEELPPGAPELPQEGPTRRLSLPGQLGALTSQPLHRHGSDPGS

SMILES	hERG current change (%, negative = inhibition) at 10uM
CNC(=O)C1(C)C=CC2(CCCCC2)N1C(=O)OC (stereo not shown)	11%
CC(C)c1ccc(S(=O)(=O)N2CCN(C(=O)n3ccnc3)CC2)cc1	-35.8%
COc1ccccc1-n1cnc2cc(C(=O)NCCCN3CCOCC3)ccc21	-0.264%
COc1cc(/C=N/N=C(N)N)ccc1OCc1ccc(Cl)cc1	-50.5%
COc1ccc(-n2c(=O)c3c4c(sc3n(CC(=O)NCC3CCCO3)c2=O)CCCC4)c(OC)c1 (stereo not shown)	8.31%
O=S(=O)(c1ccc2ccccc2c1)N1C=CC(C(F)(F)F)=NCC1	-11.6%
COc1ccc(N2CCN(C(=O)CCSCc3ccccc3F)CC2)cc1	-28.1%
CN1C(=O)/C(=C/c2ccccc2OCc2ccc(C(=O)O)cc2)NC1=S	9.44%
CCOc1ccc(S(=O)(=O)N(C)c2ccc(OCC(=O)N3c4ccc(C)cc4C4CN(C)CCC43)cc2)cc1 (stereo not shown)	-38.5%
O=C1c2ccccc2NC(c2cccs2)N1NS(=O)(=O)c1ccccc1 (stereo not shown)	2.27%
O=C(O)c1ccc(COc2ccc3ccccc3c2)o1	3.19%
COc1ccc(NC(=O)NCc2ccc3c(c2)OCO3)cc1	7.72%
CCOc1ncccc1C(=O)Nc1ccc2c(C)cc(=O)oc2c1	18.8%
O=S(=O)(NCCSc1nc2ccccc2o1)c1ccccc1	-5.31%
c1ccc(C(Cc2nc(-c3ccccn3)no2)c2ccccc2)cc1	-2.55%
O=C(NNc1ncnc2c1cnn2-c1ccccc1)c1ccco1	-2.78%
Cc1cc2[nH]c(=O)c(=O)[nH]c2cc1S(=O)(=O)N1CCC(C)CC1	7.98%
Cc1cnc(CN2CCc3c([nH]c4ccccc34)C2C2CCCCC2)[nH]1 (stereo not shown)	-62.6%
Cc1c(CC(=O)O)c(=O)oc2c(C)c(OCc3c(F)cccc3Cl)ccc12	5.53%
CCOC(=O)C(Cc1ccccc1)(Cc1ccccc1)C(C)=O	2.28%
CCn1c(COc2cccc3cccnc23)nnc1SC(F)F	5.28%
CC(=O)Nc1ccc(-n2cc(-c3ccccc3)[nH]c2=S)cc1	17.6%
CCN1C(=O)c2cccc3c(S(=O)(=O)NC(Cc4c[nH]c5ccccc45)C(=O)O)ccc1c23 (stereo not shown)	10.7%
Cn1c(CNC(=O)CNC(=O)Cc2ccccc2)cc(=O)n(C)c1=O	18.3%
COc1ccc(NC(=S)NNC(=O)C(C)n2nc(C)c([N+](=O)[O-])c2C)cc1 (stereo not shown)	15.4%
CN1CCCN(C(=O)COc2ccc(Br)cc2)CC1	-17.3%
Cc1ccc(C(=O)CN(C(=O)c2ccc(Cl)cc2)N2C(=O)CCC2=O)cc1	-50.7%
O=C(CCCCCn1c(=O)[nH]c2ccsc2c1=O)NCc1cccs1	13.8%

SMILES	hERG current change (%, negative = inhibition) at 10uM
Cc1noc(NS(=O)(=O)c2ccc(NC(=O)c3cnc4n(c3=O)CCS4)cc2)c1C	4.59%
COc1cc2c(cc1OC)CN(C(=O)CSc1nc(N)c(C#N)cc1C#N)CC2	-12.3%
COc1ccc(N2CCN(C(=O)c3ccc(F)cc3)CC2)c([N+](=O)[O-])c1	-70.1%
Cc1cccc(OCC(=O)Nc2ccc3c(c2)nc(CCN2CCC(C)CC2)n3C)c1	-68.7%
COc1ccc(C(=O)C(Cc2ccccc2)N(C)C)cc1 (stereo not shown)	-24.1%
CCN1C/C(=C/c2cccc([N+](=O)[O-])c2)C(=O)/C(=C/c2cccc([N+](=O)[O-])c2)C1	-37.3%
Cc1nc(SCC(=O)Nc2cc(C)on2)c2c(C)c(C)sc2n1	8.58%
CC(Oc1cccnc1[N+](=O)[O-])C(=O)Nc1cccc(Cl)c1 (stereo not shown)	-9.19%
CC1Sc2ccc(C(=O)NCc3ccccn3)cc2NC1=O (stereo not shown)	8.19%
COc1cccc(/C=N/c2nc3ccccc3[nH]2)c1O	3.14%
O=C(COc1coc(CN2CCN(c3ccccc3F)CC2)cc1=O)NC1CCCC1	-9.99%
NS(=O)(=O)c1ccc(NC(=O)/C(=C/c2ccncc2)NC(=O)c2ccccc2)cc1	21.9%
COC(=O)CCCC(=O)NC(C)c1cnn(-c2ccccc2C)c1C (stereo not shown)	-4.28%
CC(=O)c1ccc(OC(C)C(=O)NC2CCCCC2C)cc1 (stereo not shown)	2.43%
C=CCCC(=O)NC1CC(C)(C)Cc2c1cnn2-c1ccc(OC)cc1 (stereo not shown)	-46%
CC(C)(C)c1nc2scc(-c3ccc(Cl)cc3)c2c(=O)o1	4.57%
O=C(Cn1cnnn1)Nc1cccc(S(=O)(=O)N2CCCCC2)c1	18.2%
O=c1oc2ccccc2cc1-c1csc(Cc2nc(-c3ccc(Cl)cc3)cs2)n1	19.4%
Cc1cnc(NC(=O)CSc2nnc(-c3ccccc3)o2)s1	-0.589%
CC(C)CN(C(=O)CN1CCOCC1)c1c(N)n(CC(C)C)c(=O)[nH]c1=O	13.7%
COc1cccc(C2CC(c3ccc(C)cc3)Nc3nc(N)nn32)c1 (stereo not shown)	1.95%
Cc1nc2ccccc2c2c1C(=O)N(Cc1cccnc1)C2=O	-17.5%
COc1cccc(/C=N/NC(=O)c2ccccc2)c1OS(=O)(=O)c1ccccc1	6.22%
Cc1ccc(S(=O)(=O)N2[C@@H](c3ccc(F)cc3)C(C(=O)O)=CC[C@H]2c2cccc(Cl)c2)cc1	0.604%
COc1ccc(C(=O)NNC(=O)C23CC4CC(CC(C4)C2)C3)cc1OC	0.327%
CCc1nc2cc(CC(=O)O)ccc2o1	8.35%
CCOC(=O)c1ccc(N2C(=O)C3C(/C=C/c4ccccc4)OC4(C(=O)c5ccccc5C4=O)C3C2=O)cc1 (stereo not shown)	23.8%
